# Assay results from PubChem BioAssay AID1347073 (National Center for Advancing Translational Sciences (NCATS), 2019).
# The whole screen tested about 45,000 compounds, of which about 200 (0.44%) were called active. Not shown: some 7% with an inconclusive outcome. Calls come from the whole dose curve; as a rule, active = well fitted activation curve with a large enough effect; inconclusive = small, poorly fitted or top-dose-only effect; inactive = no such curve, though single readings can be large or run the other way. The list shows a part of the results.
# Test: qHTS of TDP-43 Inhibitors: NCGC Sytravon Library Screen; note: 0% is about no effect; nearly all actives have a fitted effect of over 55% in size
# Conditions: yeast TDP-43 toxicity rescue, BacTiter-Glo growth, 24 h; series mostly up to 46.1 µM; growth rescue (activation): at the top concentration
# Method in brief: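 TDP-43-expressing yeast, pregrown in raffinose, seeded at OD600 0.02 in galactose medium with compound for 24 hr at 30 deg C. Growth read by BacTiter-Glo luminescence, so rescue of toxicity appears as activation.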
row,Structure (SMILES),growth rescue (activation)
1,O=C(NC1CCCC1)c1cc(-c2ccc(Cl)c(Cl)c2)on1,inactive: 25.6%
2,O=C(Nc1cccc(S(=O)(=O)N2CCCCC2)c1)c1c2c(nc3ccccc13)CCN(Cc1ccccc1)C2,inactive: -5.54%
3,Cc1nc2c(OCc3ccc(Cl)cc3Cl)cccn2c1N(C)CC1CC1,inactive: -1.5%
4,COc1ccc(N2CCN(C(=O)CCC(=O)c3cc(C)sc3C)CC2)cc1,inactive: 29%
5,CC1(C)Oc2ccccc2OC1(O)c1ccc2ccccc2n1 (centres undefined),inactive: 5.13%
6,O=C(O)CSc1c2c(nc3cc(C(=O)N4CCCC4)ccc13)CCCC2,inactive: -1.17%
7,O=C(Cc1c(Cl)cccc1Cl)NC1CC1,inactive: 4.37%
8,COC(=O)C1=CN(Cc2ccc(OC)cc2)C=C(C(=O)OC)C1c1cccs1,inactive: 29.1%
9,C/C(=N\Nc1ccc(S(N)(=O)=O)cc1[N+](=O)[O-])c1ccco1,inactive: -12.7%
10,O=C(CNC(=O)c1cccnc1)N/N=C/c1cc(Br)c(O)c(Br)c1,inactive: 4.52%
11,COc1ccc(CN2CCNC(=O)C2CC(=O)NCc2csc(C(C)C)n2)c(OC)c1 (centres undefined),inactive: -8.24%
12,Cc1ccc(NNC(=O)C(=O)N2CCCCC2)cc1,inactive: 30.5%
13,Cc1ccc(N=C2NC(=O)/C(=C/c3cn(C)c4ccccc34)S2)cc1C,inactive: 10.8%
14,CC(C)N(CCc1ccncc1)C(=S)Nc1cccc(Cl)c1,inactive: 12.5%
15,FC(F)(F)c1ccc(Cl)c(NC2=NCCCCC2)c1,inactive: -8.72%
16,CCc1nc(SCC(=O)c2ccccc2)c2ccccc2n1,inactive: 27.2%
17,Cc1nc2nncn2c(N2CCN(c3ccccc3)CC2)c1C,inactive: 31%
18,COc1ccccc1/C=C/c1nc(C#N)c(N2CCCCC2)o1,inactive: 15.5%
19,COC(=O)c1c(NC(=O)CSc2nnc(C)c(=O)[nH]2)sc(C)c1C,inactive: 20.5%
20,Cc1ccc(OCCOc2ccc(Cl)cc2Cl)c([N+](=O)[O-])n1,inactive: 27.6%
21,CC(=O)Nc1ccc(Br)c2ccccc12,inactive: 8.05%
22,CC(C)CCC1=NN(C(=O)c2ccco2)C(O)(C(F)(F)F)C1 (centres undefined),inactive: 23.5%
23,Clc1ccc(C(c2ccccc2)N2CCN(c3ccccn3)CC2)cc1 (centres undefined),inactive: -19%
24,COc1ccc2[nH]c3c(NCCCOC(C)C)ncnc3c2c1,inactive: -8.52%
25,CCOc1ccc2nc(S(=O)(=O)NC(=O)C3(C)CCN3C(=O)c3cccc(F)c3)sc2c1 (centres undefined),inactive: 7.08%
26,COc1cc(C=O)cc(Br)c1OCC(N)=O,inactive: 12.6%
27,CCCC1CCC(c2ccc(C(=O)NN)cc2)CC1 (centres undefined),inactive: 11.6%

row,Structure (SMILES),growth rescue (activation)
1,C/C(=N\NC(=O)c1cc(-c2ccc(C)s2)[nH]n1)c1ccncc1,inactive: 18.7%
2,CCCc1nnc(SCC(=O)Nc2ccc(Cl)cc2Cl)o1,inactive: 26.5%
3,CCOC(=O)c1[nH]c2ccc(F)cc2c1NC(=O)CN1CCN(C/C=C/c2ccccc2)CC1,inactive: 25.7%
4,Cc1cccc(C(=O)OC(C)CN2C(C)CCCC2C)c1 (centres undefined),inactive: 6.83%
5,Cc1ccc(/C=C/S(=O)(=O)NCCC(=O)NCc2ccccc2F)cc1,inactive: 4.67%
6,COc1ccc2c(/C=N/Nc3ccc(C(=O)O)cc3)c[nH]c2c1,inactive: 1.14%
7,COc1ccccc1NC(=O)c1c(Nc2ccccc2F)sc(C(=O)Nc2cccc(Cl)c2)c1N,inactive: 8.01%
8,O=C(CN1C(=O)c2ccccc2C1=O)NCC(=O)OCC(=O)c1ccc(Cl)cc1,inactive: 10.3%
9,CC(=O)N1N=C(c2ccc(C)cc2)CC1c1ccco1 (centres undefined),inactive: 16.1%
10,O=C(N/N=C/c1cn(Cc2ccccc2)c2ccccc12)c1cccnc1,inactive: 38.7%
11,NC(=O)Nn1c(CCC(=O)O)ccc1-c1ccc(Cl)cc1,inactive: 11.4%
12,O=C(NC(c1ccccc1)c1ccc2ccccc2n1)C1CCN(Cc2ccc(Oc3ccccc3)cc2)CC1 (centres undefined),inactive: 8.77%
13,COc1cccc(NC(=O)NC2CCCCC2C)c1 (centres undefined),inactive: 1.73%
14,O=C(COC(=O)c1ccc2c(c1)C(=O)N(c1cccc3ncccc13)C2=O)c1ccc(Cl)cc1,inactive: -7.48%
15,COc1ccc(S(=O)(=O)Nc2ccccn2)cc1,inactive: 11%
16,Cc1ccccc1NC(=S)/C(=C(\[O-])c1ccc(C)c([N+](=O)[O-])c1)[n+]1ccccc1,inactive: 6.75%
17,CCCCOC(=O)Nc1ccc(N(C)C)cc1,inactive: -4.29%
18,COc1ccc(NC(=S)NN(C)C(=S)Nc2ccc(OC)cc2)cc1,inactive: 23.2%
19,Cc1ccc2nc(/C(C#N)=C\c3ccc(Oc4ccc([N+](=O)[O-])cn4)cc3)[nH]c2c1,inactive: -0.0619%
20,O=C(CN(C(=O)CCC(=O)Nc1ccccn1)c1cccc(F)c1)NCc1ccco1,inactive: -1.03%
21,O=C(CSc1nnc(NC(=O)c2c(F)cccc2F)s1)NCc1ccccc1,inactive: 3.15%
22,CC(C)Oc1ccc(C2CC(=O)N(c3ccc(C(=O)O)cc3)C2=O)cc1 (centres undefined),inactive: -4.64%
23,CCOC(=O)C1(CCOc2ccccc2)CCN(C(=O)CCSC)CC1,inactive: 11.2%
24,C=CCn1c(C)c(/C=C/c2cc[n+](C)cc2)c2ccccc21,inactive: -1.83%
25,COc1ccccc1CNC(=O)CC12CC3CC(CC(Br)(C3)C1)C2,inactive: -2.15%
26,Cc1ccc(C)c(N2CCN(c3cnn(-c4nc5ccccc5s4)c(=O)c3Cl)CC2)c1,inactive: 7.99%
27,Cc1ccc(/C=C2\SC(=S)N(CCC(=O)NCCCN3CCOCC3)C2=O)cc1,inactive: -8.12%
